According to paper PMC4336329 (PLoS ONE, 2015):
The campaign covered roughly 310,000 compounds. About 2,200 (0.71%) showed an effect of 50% or more. Effects have a minus sign here. The list shows a part of the results.

molecular target: human ether-à-go-go-related gene (hERG) potassium channel (human, UniProt Q12809); test: primary screen, population patch clamp on CHO cells stably expressing hERG
Sequence (Q12809 whole entry, looked up): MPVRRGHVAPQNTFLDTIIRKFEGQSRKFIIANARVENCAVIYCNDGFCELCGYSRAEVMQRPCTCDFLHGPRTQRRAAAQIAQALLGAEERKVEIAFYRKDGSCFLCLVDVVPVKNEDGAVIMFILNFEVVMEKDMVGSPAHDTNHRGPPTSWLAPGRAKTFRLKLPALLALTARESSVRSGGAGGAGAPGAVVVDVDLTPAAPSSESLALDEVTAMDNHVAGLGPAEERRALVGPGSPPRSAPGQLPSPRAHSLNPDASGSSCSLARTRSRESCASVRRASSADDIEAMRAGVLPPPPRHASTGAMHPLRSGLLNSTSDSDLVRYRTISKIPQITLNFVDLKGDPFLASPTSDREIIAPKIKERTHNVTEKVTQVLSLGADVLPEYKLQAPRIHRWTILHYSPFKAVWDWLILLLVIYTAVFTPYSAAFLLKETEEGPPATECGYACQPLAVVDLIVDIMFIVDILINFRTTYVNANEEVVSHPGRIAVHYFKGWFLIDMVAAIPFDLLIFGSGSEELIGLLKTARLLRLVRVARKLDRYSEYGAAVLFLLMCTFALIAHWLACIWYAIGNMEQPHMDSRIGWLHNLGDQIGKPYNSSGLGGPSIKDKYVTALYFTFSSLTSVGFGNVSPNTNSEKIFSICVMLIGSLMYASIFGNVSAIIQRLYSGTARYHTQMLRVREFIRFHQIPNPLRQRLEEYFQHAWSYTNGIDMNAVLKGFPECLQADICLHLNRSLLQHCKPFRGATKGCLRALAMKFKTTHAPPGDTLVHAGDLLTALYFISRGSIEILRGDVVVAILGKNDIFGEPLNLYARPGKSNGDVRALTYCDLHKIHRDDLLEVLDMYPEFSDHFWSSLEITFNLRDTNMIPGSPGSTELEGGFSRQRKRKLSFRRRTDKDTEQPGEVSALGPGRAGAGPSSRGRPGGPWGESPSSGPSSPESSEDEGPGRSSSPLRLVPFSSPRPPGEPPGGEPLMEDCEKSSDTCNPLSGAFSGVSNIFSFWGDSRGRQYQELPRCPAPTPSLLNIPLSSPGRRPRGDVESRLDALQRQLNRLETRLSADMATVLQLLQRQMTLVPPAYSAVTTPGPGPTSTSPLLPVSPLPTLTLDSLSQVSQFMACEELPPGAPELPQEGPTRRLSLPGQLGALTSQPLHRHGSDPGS

Row | SMILES | hERG current change (%, negative = inhibition) at 1uM [%]
1 | Cc1csc(NC(=O)c2cc(-c3ccco3)nc3ccccc23)n1 | 1.22
2 | O=C(/C=C/N1CCOCC1)c1cc2ccccc2o1 | 5.24
3 | COc1cccc2cc(C(=O)N3CC(C)OC(C)C3)c(=O)oc12 (stereo not shown) | 10.4
4 | Cc1cccc(NC(=O)CSc2cccc3cccnc23)c1C | 13.9
5 | COC(=O)c1c(NC(=S)NNC(=O)c2ccc(Cl)s2)sc(C(=O)N(C)C)c1C | 14.2
6 | COc1ccc(C)cc1NC(=O)C1CCN(S(=O)(=O)c2c(C)noc2C)CC1 | 2.62
7 | O=C(N1CCOCC1)N1CCN(c2ccccc2)CC1 | 1.64
8 | O=C(N=C1SC2CS(=O)(=O)CC2N1Cc1ccc(Cl)cc1)C1CCCO1 (stereo not shown) | 12.4
9 | C/C(=N\NC(=O)c1cc(C2CC2)nc2ccccc12)c1ccc(O)cc1O | 12.3
10 | Cc1cc(NC(=O)C(=O)NCc2cccc(Cl)c2)no1 | -0.447
11 | COc1cccc(CNC(=O)C2CCCN(S(C)(=O)=O)C2)c1 (stereo not shown) | 12.8
12 | O=C(c1cnn(C(=O)c2ccccc2F)c1)c1ccccc1O | -4.59
13 | Cc1ccc(C)c(-n2c(CNc3ccc(F)cc3)nnc2SCC(N)=O)c1 | 2.87
14 | CC1(C)c2[nH]c3ccccc3c2C[C@H]2C(=O)N(CCCO)CC(=O)N21 | 12.9
15 | CC(C)(C)c1ccc2c(c1)N(CC(=O)N1CCCC1)C(=O)CO2 | 14.9
16 | COc1cccc(CCNC(=O)COc2cccc3c2OC(C)(C)C3)c1 | 5.32
17 | CN1CCN(S(=O)(=O)c2cccc3nsnc23)CC1 | 17.9
18 | C/C(=N\n1c(C)cc(C)c(C#N)c1=O)c1cccs1 | 5.83
19 | C/C(=N/NS(=O)(=O)c1ccccc1)c1ccc(Cl)cc1 | 15.3
20 | O=c1c2ccccc2nc(-c2ccccc2)n1/N=C/c1ccc([N+](=O)[O-])cc1 | 12.1
21 | N#Cc1ccc(COC(=O)CC(NC(N)=O)c2ccc(Cl)cc2)cc1 (stereo not shown) | -7.15
22 | CCSc1cc(N2CCCC2)nc(-c2ccc(C)cc2)n1 | 14.3
23 | O=C(CN1CCOCCOCCOCCOCC1)Nc1ccccc1 | 8.33
24 | COc1ccc(Br)cc1CN(C)C(=O)Cc1ccc(S(=O)(=O)N2CCOCC2)s1 | -17.3
25 | CCOc1ccc(NC(=O)c2cc([N+](=O)[O-])ccc2N2CCOCC2)cc1 | -16.3
